According to the supplement of paper PMC10681739:
± gives the standard deviation of the averaged measurements. The full ranking holds about 4,100 sequences; the median of “arbitrary fluorescence units” is about 780, and the highest 2% start at about 22,000. The list shows a part of the results.

molecular target: T1, ETS1 (UniProt P14921); experiment: ETS1 binding intensity (PBM fluorescence), ETS1 alone (arbitrary fluorescence units); higher = stronger binding; conditions: ETS1 concentration 1 nM; RUNX1 concentration 0 nM
T1 sequence: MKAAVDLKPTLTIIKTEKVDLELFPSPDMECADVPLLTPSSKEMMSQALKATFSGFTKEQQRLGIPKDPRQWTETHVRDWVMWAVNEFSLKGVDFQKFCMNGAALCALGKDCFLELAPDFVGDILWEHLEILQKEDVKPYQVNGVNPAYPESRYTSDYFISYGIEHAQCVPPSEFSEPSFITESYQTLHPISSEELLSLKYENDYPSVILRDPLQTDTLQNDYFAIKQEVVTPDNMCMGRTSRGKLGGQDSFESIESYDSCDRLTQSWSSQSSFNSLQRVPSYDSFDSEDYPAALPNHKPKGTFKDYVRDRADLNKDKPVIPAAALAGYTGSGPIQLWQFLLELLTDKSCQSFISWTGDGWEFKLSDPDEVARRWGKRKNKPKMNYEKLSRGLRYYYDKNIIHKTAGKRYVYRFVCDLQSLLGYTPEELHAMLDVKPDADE
In short: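 Double-stranded Agilent 4 × 180k arrays held 36-bp genomic probes whose RUNX1 partner site was mutated, and these were incubated with 1 nM full-length recombinant human ETS1 in the absence of RUNX1 under standard PBM protocols. Bound protein was labelled with anti-ETS1 antibody (Cell Signaling Technology 14069) plus an Alexa488-conjugated secondary and read on a GenePix 4400A, with four spots printed per sequence. Binding level is reported as raw spot fluorescence intensity summarised over replicate spots.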

Row | Sequence | ETS1 binding intensity
1 | CGAAAAACGTCAGGGGAGCCATGGGGGCAGGAAGGG | 485
2 | AAGTCAAAATCGCAAACGCTCAGGAAAAAAGACTCT | 413
3 | GCACAAAGCTACAAAACCCATTCCTGCCGGATATGA | 684
4 | CTTGTAGTCAGGTTGTTGGGCAGGATGTTTCTCATG | 475
5 | GTGGCGCGCTGGGGCGCGGACCCGGAACTGCCAAGT | 363
6 | CCCGCCGCCACTAGGAGACGCCCGAGGACTTCCCTC | 364
7 | CGCCGCGGCGGATGGAGGTGCCCAGGGCCACGGACC | 433
8 | GCCTGGCCGAAGCTGCTGCTGAGCGGAAGTCTCTGA | 868
9 | GTTATCCACCCTCTCTATGCTTCAGTTTCCTCATGT | 634 ± 39
10 | GCTGGGGCCAAGTGCAGGAACCGGAGGAAGGAACTG | 342
11 | GACTCACACGCTTCGGCGACAGGAAAGCCCGCGCCC | 530
12 | TGGGCACGGGAGGAAGAGGCTGGGTGGAAAACAGGA | 433
13 | CACTGATTAAGAGGAAGTGTGTGTGATTATTACCGT | 1270
14 | GCTGCTCACAGCGCTCACCCTCCACATCCCGGCCGC | 345
15 | CTGAGGTGTCGGAGGCTGTGACGTCGGGAAGTAAGT | 373
16 | ACCTCATCCTGCTGTTCTTGTGTGTCGTTGAGCAGT | 2840
17 | CCTGGGGTACGCCTGGGTCACGCCTCTTCCGCTAAG | 504
18 | GGAGCTACCTCAGGCAGACTAACTTCCTGCTAAGCA | 3290
19 | ACCCCACCAGCCGCCTCCACTTCCGGCACCCACGAG | 10400
20 | ACCTGGTCTTGTAGCCCCCACCCAGGAAATGACTCA | 567
21 | ACAATAACAGGAAGTGGTGGGGACTGGGGTGACCTG | 8620
22 | CCAGGAGCGTTTCGGCCGCGGCTTCCTCCTACGGCG | 464
23 | GGGGCCCCGGATGCACTGAGCGGATTCGGCGCGGCT | 1160
24 | AGCCAACAGGAAGCTGCAGAGACTAAACTACAGCAA | 3610
25 | TGTTGGTGGATAAAAAGCAATTTGGGACTTCCTCTT | 546
26 | CCATTCTTCCGGTGGAGATGGCGGCGGCCGTGGCGG | 17800
27 | CTCCTACGGCGACACGCCTAGCAGACGGCGGAAGGC | 371

Row | Sequence | ETS1 binding intensity
28 | CTTGCGCCGTCCGGGTACCTGAGGGCGGGGTGTACC | 477
29 | GCGGCGAACCGGACGCCCCAACAAGCCGCCCCCCAC | 866
30 | TGACTCGAGGTCTTGTTATCAGTTTCCGGGATGACA | 1370
31 | AAGGAACTGTCGTAAGAGAAGGAAGTGGTAGCCACT | 456
32 | GACGCAATCCCTCAGCCTTCTGGGAAACGTAGTTTA | 450
33 | TTGGCCTCGCCGGAACCCCTTGCACCGTGGACACAG | 315
34 | TATCATTTTTACGACAGAGGTACAGGAAATTGTTTC | 733
35 | AGCGGCGCCTTCCGCAGAGGGACAGCGCCTTTCTGC | 1010
36 | AGAAAGCAGGAAAGTGACGTCATTTTGTGACTTCAG | 492
37 | TTGGGGCTAATGGCTCAGCAGGATTAGGAAGCAACT | 406
38 | AGCTCCCAGAGCACAGAGGTTTTCCTGCATGGAGGA | 345
39 | CTAGCCAGGAAGATAAAGAAGAATCCACCAAAGAGA | 414
40 | ACAAAGAAACCTACATCCTAAGCCACCGAATACAGC | 592
41 | TCGGCGGATATGAAAAAAAGTCCGTGCTCACGTGCA | 1250
42 | CTTATCTTCTTCCTGTGAGCTGTGTGTGCGTGGCTC | 3200
43 | CCGGGACCTCGGCTTGGGCTCACGGCCACTTCCGAC | 393
44 | TCGTATTTGGGGTCAGCCTCTTCCGTAATGTGCTTG | 441
45 | GACCCCTACGCGGAACTCTCTCGCGGCAATTCGAAG | 390
46 | TGCACACATGAGGAAGGGGTAAGTGGATTTCCCTAC | 406
47 | GTGACAGCCGCCTCCCCAGCCACATCCTGTTTGACT | 4030
48 | GTGACGGATATCCACCGGGCCCTGTAGTTTCCAACA | 935
49 | GCCACATATTTCCTGTGACAACCCTGAGGTGTGGCT | 7410
50 | CTCTTTTATACCCCAAGGAGGAAAAGGAAATGAACC | 641
51 | CGAACGCCGGACGTTCTGGGCACGTGATCGCCACCC | 803
52 | CCTCCAGGAAGCGATAAGTGACTCTGGTGGAGAGAG | 1020
53 | GGCTGAAGGTTTCCGTGCTTGGAAATCGCGCCTCCG | 1010
54 | GCCGCGCGGAAGCCTCCGCCCTGTAGTTTTGGAGCC | 383

Row | Sequence | ETS1 binding intensity
55 | AGCGAGCGGCGGCTGTGCCAGGCGTTCCGTCCGGCG | 287
56 | AGGCGGCAGGAAATGACCCCATCGCGCAGCCTGGGC | 5990
57 | CTCTTTCACAAAGGAAATGGAAACCCCAAAGAGGAC | 1290
58 | TGCAGCCTATTTCCTCTAACCCGTAGATCCACTATG | 4660
59 | GCTTCAGGCTTCCGGGGCGCACACTGCCGTAAAGCT | 5230
60 | TCCCAGGAACGACAGTGGGACAGGAAGTGACAGCCA | 3790
61 | GGCTGTGTTGGGGTTACTGCGGAAACTTCATTTTTC | 493
62 | ACAGGAAGTGAGGCTGTGAGGAGTTTTTGGTGTGTA | 2020
63 | AGTGGGGCCCCAGGATGTGTTTTGGTCTTGCAAGGT | 390
64 | TTGGGGTTTGGTTTAACCCCTGTAATTTCCTGTAAA | 750
65 | TGTCTGACGTTTCTCTGTGAACAGGAAGCTGAGAAC | 1150
66 | CGTCACTTCCCACGCGACTGCCAGCGGGAAACATGG | 1190
67 | CTGGTCACTGGGGTGAGGAGGCTTTTCCTGGGGTAA | 387
68 | ACCACCTACAGCCGTCTAACATCACTTCCTTCAGAG | 657
69 | GAGGGCTGCTTCCTGCTCTGTGGAGGCCGCTGAGGG | 6710
70 | GTCGGAGATGGTGGACACGAGCGCTTCCGGGTCAGC | 1730
71 | TTCGCGTGCTCACTTTCGCGTCCATTCCGGGCTTCT | 386
72 | CCCAGCCACATCCCAGAGCAGCTAACCTACAGTCCT | 480
73 | AGCGCAGCCGTAGACTCCGCTCACATCCCCGGGTCG | 314
74 | TCGCACCGGAACCCCTTGGCGGATTATGTGAGTTCA | 669
75 | GTCCTTTCTCGTGGGCAAGGAAGTGGGGCCCCAGGG | 416
76 | GGGCAGCATCCTGTGCCTGCTTCTCTTACCTACATC | 4780
77 | CTTCTCGCGGAAGCGGCACAAGGCGCAGTACAGCGC | 589
78 | CATGCCTACCCTCGGGCCCTCTCAGCTTCCGTACAC | 401
79 | CTGAGGGTGACTGAGCGGGGCCAGCCGGAAGGGCGG | 449
80 | GCTGAGCACATTAAACCAGCGCCCACTTCCTCTCAC | 824
